Molecules are shown by their SMILES. Out of some 46,000 compounds screened, about 60 (0.1%) were called active. Roughly 3% stayed inconclusive and do not appear here. Calls follow the shape of the dose curve; as a rule, active = well fitted inhibition curve with a large enough effect; inconclusive = small, poorly fitted or top-dose-only effect; inactive = no such curve, though single readings can be large or run the other way. The list shows a part of the results.

This test in a line: Primary qHTS assay for Inhibitors of ovarian cancer metastasis using an organotypic tumor microenvironment (TME) model. Also: nearly all actives have a fitted effect of over 65% in size.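 As to activity change, negative = inhibition: plate controls were DMSO wells for no effect and tomatine positive control wells for full effect.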 As to conditions: SKOV3ip1-GFP adhesion/invasion on 3D omental model, fluorescence; series mostly up to 45.8 µM; activity change, negative = inhibition: at the top concentration. Summed up: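 A 3D layer of primary human omental fibroblasts, mesothelial cells, fibronectin and collagen I, grown 48 hr, received SKOV3ip1-GFP cells in serum-free medium plus compounds at 0.36-46 umol/L. After 2 hr RT and 16 hr 37 C, fixed adherent GFP cells were counted; normalized to DMSO and tomatine.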
For orientation: qHTS replaces the single test concentration by a dilution series.
As for `Cc1ccc(CNC(=O)c2ccc3c(c2)N(Cc2ccccc2)C(=O)c2ccccc2S3(=O)=O)cc1`, the “activity change, negative = inhibition” value was inactive: -0.244%. In the case of `Cc1cccc(CCNC(=O)c2cnc3c(C)cccn3c2=O)c1`, the “activity change, negative = inhibition” value is inactive: 3.88%.

As for `CC(C)(C)c1ccc(S(=O)(=O)c2cn(CC(=O)Nc3ccccc3)c3ccccc3c2=O)cc1`, the call was inactive. Turning to `COc1ccc(/C=C/C(=O)Nc2nc3n(n2)C(c2ccccc2)C=C(c2ccc(Cl)cc2)N3)cc1` (stereo not drawn), the “activity change, negative = inhibition” value was inactive: -6.98%.

For `COc1ccc2oc(=O)c(-c3cn4c(n3)sc3cc(OC)ccc34)cc2c1`, the “activity change, negative = inhibition” value is inactive: -7.31%. Take `COc1ccc(OC)c(CNC(=O)Cn2nc(C)c3nn(-c4ccc(Cl)cc4)c(C)c3c2=O)c1`: the “activity change, negative = inhibition” value was inactive: 0.272%. With `CCOc1ccccc1CNC(=O)c1ccc(NC(=O)N2CCSc3ncccc32)cc1`, the “activity change, negative = inhibition” value was inactive: -4.85%. Consider `Fc1ccc(-n2ncc3c(N4CCC(Cc5ccccc5)CC4)ncnc32)cc1`, for which the “activity change, negative = inhibition” value is inactive: 3.53%. Still for that read-out and setting: in the case of `COc1ccc(CNC(=O)CCNS(=O)(=O)c2cccc3nsnc23)cc1` it was inactive: 19.8%.

As to `COc1ccc(NC(=O)c2cc(S(=O)(=O)N3CCCCCC3)cn2C)cc1Cl`, the outcome was inactive. For `Clc1ccc(N2CCN(c3ncnc4c3cnn4-c3ccccc3)CC2)cc1Cl`, the “activity change, negative = inhibition” value was inactive: -11.7%. Turning to `C[C@@H](CN1CC(=O)NC(=O)C1)N1CC(=O)NC(=O)C1`, the “activity change, negative = inhibition” value is inactive: -10.2%.

Turning to `CCc1ccccc1NC(=O)Nc1nnc(N(C)Cc2ccccc2)s1`, the “activity change, negative = inhibition” value was inactive: -7.85%. Turning to `Cc1sc2ncn(CC(=O)Nc3ccc(F)cc3F)c(=O)c2c1S(=O)(=O)N1CCC(C)CC1`, the “activity change, negative = inhibition” value is inactive: -16.9%.

As for `CCOc1ccccc1NC(=O)N1CCC(n2c(C)nc3cccnc32)CC1`, the “activity change, negative = inhibition” value was inactive: -4.61%. `CCCNC(=O)c1cnn2c(C)c(Cc3c(C)cc(C)cc3C)c(C)nc12`: the “activity change, negative = inhibition” value was inactive: -2.11%. As for `COc1ccc(NC(=O)c2cc3nc(-c4ccc(Cl)c(Cl)c4)cc(C(F)(F)F)n3n2)c(OC)c1`, the “activity change, negative = inhibition” value is inactive: 15.5%. On to `COc1cccc(N2CCN(S(=O)(=O)c3cn(C)c(C)n3)CC2)c1`, for which the outcome was inactive. Regarding `Cc1ccc(CCNC(c2ccc(F)cc2)c2nnc(-c3ccccc3Cl)o2)cc1` (stereo not drawn), the “activity change, negative = inhibition” value was inactive: -3.11%.

For `COc1ccc(CNC(=O)CCc2cn(C)c3ccccc23)cc1`, the “activity change, negative = inhibition” value is inactive: 12.4%. For the compound `COc1ccc(C(=O)NC2CC(=O)N(c3ccc4c(c3)OCCO4)C2)cc1` (stereo not drawn), the compound was classed as inactive.

Consider `Cc1c(-c2nnc(SCC(=O)Nc3ccccc3F)o2)nnn1-c1ccc(F)cc1`, for which the “activity change, negative = inhibition” value is inactive: -7.01%. The same measure, in the same setting: in the case of `CC(=O)N1CCc2cc(S(=O)(=O)NC(CC(C)C)C(=O)Nc3ccc(C(C)C)cc3)ccc21` (stereo not drawn) it was inactive: -9.71%. With `CCOc1ccc(CNC(=O)c2cccc(NC(=O)N3CCSc4ncccc43)c2)cc1`, the “activity change, negative = inhibition” value is inactive: 6.23%.

As for `COc1ccc(CNC(=O)c2ccc3nc(CCc4ccccc4)oc3c2)cc1OC`, the “activity change, negative = inhibition” value was inactive: -13.6%. For `CCn1c(C(=O)N2CCC(C(=O)N3CCN(c4cc(C)ccc4C)CC3)CC2)cc2sccc21`, the “activity change, negative = inhibition” value is inactive: -14%. Turning to `CC(C)CC(=O)Nc1nc2c(s1)CC(C(C)(C)C)CC2` (stereo not drawn), the “activity change, negative = inhibition” value was inactive: -11.3%. Regarding `CCOC(=O)N1CCc2c(sc3c2c(=O)n(Cc2ccccc2)c(=O)n3Cc2cc(C)ccc2C)C1`, the “activity change, negative = inhibition” value was inactive: -7.02%. For the compound `CC(=O)N1c2ccc(S(=O)(=O)N3CCCCCC3)cc2CC1C(=O)NC(C)C` (stereo not drawn), the result was inactive.

Take `Cc1cc(-c2ccc(C)c(S(=O)(=O)N3CCC(C)CC3)c2)on1`: the “activity change, negative = inhibition” value is inactive: -2.75%.

In the case of `COc1ccc(CC(=O)NC2CC(=O)N(c3cccc(F)c3)C2)cc1OC` (stereo not drawn), the “activity change, negative = inhibition” value was inactive: -23.9%.

As to `CCc1nn(CCCC(=O)N2CCN(c3cc(Cl)ccc3C)CC2)c(=O)c2cc3occc3n12`, the outcome was inactive. For the compound `Cc1ccc(C2=Nc3ccccc3N(CC(=O)Nc3ccccc3F)C(=O)C2)cc1C`, the “activity change, negative = inhibition” value is inactive: -13.3%. As to `COc1ccccc1Nc1sc(C(=O)c2ccc3c(c2)OCO3)c(N)c1S(=O)(=O)c1ccccc1`, the compound was called inactive. Same read-out and setting: in the case of `CCOC(=O)c1c(C)n(S(=O)(=O)c2ccc(C)cc2C)c2ccc(NS(=O)(=O)c3ccc(C)cc3C)cc12` it was “inactive”. In the case of `CCN(CC)CCCNC(=O)Cc1ccc(NC(=O)N2CCCCc3ccccc32)cc1`, the “activity change, negative = inhibition” value was inactive: 4.78%. Regarding `O=c1oc2ccccc2cc1-c1nnc(Nc2ccc(Cl)cc2Cl)s1`, the “activity change, negative = inhibition” value is inactive: 0.716%. As to `CCCn1c2ccccc2c2cnn(CC(=O)NCc3ccccc3Cl)c(=O)c21`, the compound was called inactive. On to `O=C(Nc1cccc(Cl)c1)c1ccc2nc(CCc3ccccc3)oc2c1`, for which the “activity change, negative = inhibition” value was inactive: -8.22%. Turning to `CCC1Oc2ccc(C)cc2N(CC(=O)NCc2ccc(OC)cc2)C1=O` (stereo not drawn), the “activity change, negative = inhibition” value was inactive: 10.2%. As for `CC(C)Oc1ccc(CNC(=O)C2CCN(c3nc4ccccc4nc3C(F)(F)F)CC2)cc1`, the “activity change, negative = inhibition” value was inactive: -26.2%.

For the compound `COc1cc(OC)c(NC(=O)C2CCN(C(=O)c3sc4nc[nH]c(=O)c4c3C)CC2)cc1Cl`, the “activity change, negative = inhibition” value was inactive: -5.37%. In the case of `CC(=O)NC1CC(=O)N(c2ccc3c(c2)OCCO3)C1` (stereo not drawn), the “activity change, negative = inhibition” value is inactive: 0.267%. Consider `Cc1ccc(-c2nc3cc(Cl)ccc3o2)cc1NC(=O)c1cc([N+](=O)[O-])ccc1N1CCOCC1`, for which the compound was called inactive. With `COc1cccc(C2CC(=O)Nc3cc4c(cc32)OCO4)c1OC(C)C` (stereo not drawn), the compound was classed as inactive. Consider `CCC(=O)N1CCc2cc(Br)cc(S(=O)(=O)N3CCC(C(=O)Nc4ccccc4CC)CC3)c21`, for which the “activity change, negative = inhibition” value is inactive: 7.54%. As for `Cc1nc(-c2ccccc2)sc1-c1ccc(SCC(=O)Nc2cccc(C(F)(F)F)c2)nn1`, the compound was classed as inactive. For the compound `COc1ccc(-c2noc(N(c3cccc(Cl)c3)c3nc(-c4ccc(OC)c(OC)c4)no3)n2)cc1OC`, the call was inactive.

For the origin of these results see PubChem BioAssay AID1963576 (National Center for Advancing Translational Sciences (NCATS), 2024).
